# Experimental data reported in PubChem BioAssay AID686978 (National Center for Advancing Translational Sciences (NCATS), 2013).
# Among all 420,000 compounds or so, about 64,000 (15%) were called active. Inconclusive results, whose numbers are uncertain, are shown with a selection of clear calls. Calls follow the shape of the dose curve; as a rule, active = well fitted inhibition curve with a large enough effect; inconclusive = small, poorly fitted or top-dose-only effect; inactive = flat fitted curve, though single readings scatter. Potencies of inconclusive entries are left out as doubtful fits.
# Test: qHTS for Inhibitors of human tyrosyl-DNA phosphodiesterase 1 (TDP1): qHTS in cells in absence of CPT; also: nearly all actives have a fitted effect of over 55% in size
# Conditions: DT40 Tdp1-/- hTDP1 cells, no CPT, ATP luminescence, 48 h; series mostly up to 46.2 µM
# How it was run: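 A cellular qHTS used chicken DT40 cells lacking endogenous Tdp1 but carrying stably transfected human TDP1. Compounds were applied without camptothecin, and cell growth kinetics were judged by ATP-dependent luminescence after ≥48 hr.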
# Potency is read from the fitted curve at half-maximal effect; tags tell the direction and shape of the fitted curve.
row,SMILES,Potency
1,COc1ccccc1C(=O)OCC(=O)Nc1cccc(S(=O)(=O)N2CCCC2)c1,"inconclusive [inhibitor, single point]"
2,Cc1nn(-c2cccc(Cl)c2)c2nc(-c3ccco3)cc(C(=O)O)c12,inactive
3,CCOC(=O)c1csc(NC(=O)CSc2nnnn2-c2ccc(OC)cc2)n1,"inconclusive [inhibitor, partial curve]"
4,O=C(CCCN1CCc2[nH]c3ccc(F)cc3c2C1)c1ccc(F)cc1,"inconclusive [inhibitor, single point]"
5,CCN(CC)S(=O)(=O)c1ccc(OC)c(NC(=O)CSc2ccccc2)c1,"inconclusive [inhibitor, single point]"
6,C[C@@]12C(=O)Nc3cc(F)ccc3C(=O)N1[C@H]1c3cc(Br)ccc3OC[C@@H]1[C@@H]2c1ccccc1,"inconclusive [inhibitor, single point]"
7,O=C(Cn1cnc2c(cnn2-c2ccc(F)cc2)c1=O)NCCc1ccccc1,"inconclusive [inhibitor, partial curve, poor fit]"
8,CCN1C[C@@H]2[C@@H]3C(=O)N(Cc4ccccc4)C(=O)[C@@H]3[C@](Cc3ccccc3)(C1=O)N2C(=O)c1ccc(Cl)cc1,"inconclusive [inhibitor, single point]"
9,O=C(Nc1ccccc1)c1ccc(S(=O)(=O)Nc2cccc(O)c2)cc1,"inconclusive [inhibitor, single point]"
10,O=C(c1ccc(F)cc1)c1c[nH]c(C(=O)NCc2ccco2)c1,active: 11.6 µM
11,Cc1ccc(-c2ocnc2C(=O)Nc2ccccc2NC(=O)c2ccccn2)cc1,"inconclusive [inhibitor, single point]"
12,COc1cc(CNc2ccc3[nH]c(=O)[nH]c3c2)ccc1OCC(=O)NC(C)(C)C,"inconclusive [inhibitor, single point]"
13,Brc1ccc(OCCCCCN2CCOCC2)cc1,inactive
14,Cn1cccc1Cc1nnc(SCC(=O)NCCc2ccccc2)n1-c1ccc(F)cc1,"inconclusive [inhibitor, full curve, poor fit]"
15,COc1ccccc1-c1n[nH]nc1C1=CC(=O)C[C@H](c2ccc(F)cc2)C1,"inconclusive [inhibitor, partial curve, poor fit]"
16,O=C(NC1CCN(C(=O)NCc2ccccc2)CC1)c1ccco1,inactive
17,Cc1ccc(C(=O)Nc2cccc(C(=O)N/N=C/c3ccc(F)cc3)c2)cc1,"inconclusive [inhibitor, single point]"
18,Nc1cccc(C2=Nc3cccc4cccc(c34)N2)c1,"inconclusive [inhibitor, single point]"
19,Cc1ccc([N+](=O)[O-])cc1-c1ccc(/C=N/NC(=O)CN2CCOCC2)o1,"inconclusive [inhibitor, partial curve]"
20,CC1=C(C(=O)OCCOC(C)C)C(c2cc3c(cc2Br)OCO3)CC(=O)N1 (stereo unspecified),"inconclusive [inhibitor, single point]"
21,Cc1cc(O)ccc1Nc1nc2ccccc2nc1Nc1ccc(O)cc1C,active: 5.17 µM

row,SMILES,Potency
1,COc1cc(OC)cc(C(=O)N2CCCc3ccccc32)c1,"inconclusive [inhibitor, partial curve]"
2,CCOC(=O)c1cc(C(C)=O)n2ccccc12,inactive
3,Cc1sc(N/N=C/c2ccco2)nc1-c1ccccc1,active: 23.1 µM
4,O=C(CCCc1ccccc1)N1CCN(C2CCCCC2)CC1,"inconclusive [inhibitor, full curve, poor fit]"
5,O=C(NCc1ccco1)c1cnn2c(C(F)(F)F)cc(-c3ccco3)nc12,"inconclusive [inhibitor, single point]"
6,CSc1ccc(S(=O)(=O)N2CCC(C(=O)Nc3ccc(NC(C)=O)cc3)CC2)cc1,"inconclusive [inhibitor, single point]"
7,CN(c1ccccc1)S(=O)(=O)c1cccc(C(=O)NCC(=O)Nc2ccc(F)c(F)c2F)c1,active: 16.4 µM
8,CC1CCN(CC(O)COc2ccc(C(=O)c3ccccc3)cc2)CC1 (stereo unspecified),"inconclusive [inhibitor, partial curve]"
9,COC(=O)C(Cc1ccccc1)NC(=O)C12CC3CC(CC(C3)C1)C2 (stereo unspecified),"inconclusive [inhibitor, single point]"
10,CCn1c(SCC(=O)N/N=C/c2cc(OC)c(OC)c(OC)c2)nc2ccccc21,"inconclusive [inhibitor, single point]"
11,Cc1ccc(F)cc1NC(=O)COC(=O)C1CCN(c2ccc(C(F)(F)F)cn2)CC1,inactive
12,CC(=O)CCc1ccc(OCCCOc2cccc3cccnc23)cc1,"inconclusive [inhibitor, single point]"
13,CCOc1ccc(CN2CCN(S(=O)(=O)c3ccc(Cl)cc3)CC2)cc1,"inconclusive [inhibitor, single point]"
14,Cc1nc(C)n(C(Oc2ccc(Cl)cc2Cl)C(=O)C(C)(C)C)n1 (stereo unspecified),"inconclusive [inhibitor, partial curve]"
15,CCOc1ccc(N(CC)C(=O)c2cc3c(=O)oc4ccccc4c3s2)cc1,inactive
16,CCOC(=O)[C@]12CCCC=C1N(Cc1cccc3ccccc13)C(=O)[C@H](CC(=O)N1CCC(c3ccccc3)CC1)C2,"inconclusive [inhibitor, single point]"
17,COc1ccc2[nH]cc(CCNc3ncnc4ccc(-c5ccccc5OC)cc34)c2c1,"inconclusive [inhibitor, single point]"
18,CC(C)CNC(=S)NNC(=O)c1csc2c1CCCC2,"inconclusive [inhibitor, single point]"
19,Cc1ccc(C(=O)N/C(=C\c2ccccc2F)c2nc(=S)[nH][nH]2)cc1,"inconclusive [inhibitor, partial curve]"
20,O=C1CC(N2CCN(C(c3ccccc3)c3ccccc3)CC2)C(=O)N1Cc1ccc(N2CCCC2=O)cc1 (stereo unspecified),inactive
